This is one part of the list.
B1: PhoQ; a variant is named by its letters at X, in order, P23837 (parent)
chain: MKKLLRLFFPLSLRVRFLLATAAVVLVLSLAYGMVALIGYSVSFDKTTFRLLRGESNLFYTLAKWENNKLHVELPENIDKQSPTMTLIYDENGQLLWAQRDVPWLMKMIQPDWLKSNGFHEIEADVNDTSLLLSGDHSIQQQLQEVREDDDDAEMTHSVAVNVYPATSRMPKLTIVVVDTIPVELKSSYMVWSWFIYVLSANLLLVIPLLWVAAWWSLRPIEALAKEVRELEEHNRELLNPATTRELTSLVRNLNRLLKSERERYDKYRTTLTDLTHSLKTPLXXLQXXLRSLRSEKMSVSDAEPVMLEQISRISQQIGYYLHRASMRGGTLLSRELHPVAPLLDNLTSALNKVYQRKGVNISLDISPEISFVGEQNDFVEVMGNVLDNACKYCLEFVEISARQTDEHLYIVVEDDGPGIPLSKREVIFDRGQRVDTLRPGQGVGLAVAREITEQYEGKIVAGESMLGGARMEVIFGRQHSAPKDE

Variants of: B1
Test: enrichment ratio after two sorts for PhoP signalling (ratio (wild type AVST 3.29)); higher = more functional
Details: with PhoP (E. coli)

Row | Variant | enrichment ratio
1 | WAGG | ≤ 0.25
2 | AVNC | ≤ 0.25
3 | MMWR | ≤ 0.25
4 | VFRH | ≤ 0.25
5 | MKSL | ≤ 0.25
6 | KTRH | ≤ 0.25
7 | NDTH | ≤ 0.25
8 | DQEP | ≤ 0.25
9 | VHYN | ≤ 0.25
10 | TDFR | ≤ 0.25
11 | TRIQ | ≤ 0.25
12 | VMAE | ≤ 0.25
13 | MRCG | ≤ 0.25
14 | KQLN | ≤ 0.25
15 | TNFC | ≤ 0.25
16 | RTSM | ≤ 0.25
17 | PLHY | ≤ 0.25
18 | NYYW | ≤ 0.25
19 | FTGK | ≤ 0.25
20 | FKFV | ≤ 0.25
21 | IFKP | ≤ 0.25
22 | VDPQ | ≤ 0.25
23 | KATP | ≤ 0.25
24 | IKFD | ≤ 0.25
25 | GYLI | 0.357

Row | Variant | enrichment ratio
26 | QKNG | ≤ 0.25
27 | YCVQ | ≤ 0.25
28 | YRNI | ≤ 0.25
29 | GMIE | ≤ 0.25
30 | VDFN | ≤ 0.25
31 | FDCG | ≤ 0.25
32 | NTCS | ≤ 0.25
33 | TPDA | ≤ 0.25
34 | WGSV | ≤ 0.25
35 | AAVN | ≤ 0.25
36 | EGPI | ≤ 0.25
37 | KDYN | ≤ 0.25
38 | TCQK | 14.2
39 | TFWM | ≤ 0.25
40 | TRIW | ≤ 0.25
41 | LETP | ≤ 0.25
42 | IMSR | ≤ 0.25
43 | HSKY | ≤ 0.25
44 | PGSW | ≤ 0.25
45 | EKHY | ≤ 0.25
46 | QNTM | ≤ 0.25
47 | QQNF | 16.3
48 | WWAY | ≤ 0.25
49 | VNHD | ≤ 0.25
50 | KNKI | ≤ 0.25

Row | Variant | enrichment ratio
51 | IDWA | ≤ 0.25
52 | DPPA | ≤ 0.25
53 | SAFL | 3.78
54 | PNSI | ≤ 0.25
55 | SRYC | ≤ 0.25
56 | KFVK | ≤ 0.25
57 | HPWQ | ≤ 0.25
58 | EEYA | ≤ 0.25
59 | VHQH | ≤ 0.25
60 | MAKK | ≤ 0.25
61 | WYVH | ≤ 0.25
62 | ISEH | ≤ 0.25
63 | TMNC | 15.3
64 | GPTF | ≤ 0.25
65 | KRFE | ≤ 0.25
66 | FREM | ≤ 0.25
67 | KGEL | ≤ 0.25
68 | RRHD | ≤ 0.25
69 | IYFN | ≤ 0.25
70 | HPTF | ≤ 0.25
71 | PKIC | ≤ 0.25
72 | LDVD | ≤ 0.25
73 | TLCR | ≤ 0.25
74 | RGKT | ≤ 0.25
75 | PSPF | ≤ 0.25

Row | Variant | enrichment ratio
76 | RWYF | ≤ 0.25
77 | IGTK | ≤ 0.25
78 | AFIY | ≤ 0.25
79 | GESA | ≤ 0.25
80 | SHYS | ≤ 0.25
81 | IDRT | ≤ 0.25
82 | IHGM | ≤ 0.25
83 | WFWP | ≤ 0.25
84 | GMER | ≤ 0.25
85 | LQWC | ≤ 0.25
86 | YHAC | ≤ 0.25
87 | KVAY | ≤ 0.25
88 | PHAE | ≤ 0.25
89 | ADER | ≤ 0.25
90 | NTDS | ≤ 0.25
91 | QMTI | ≤ 0.25
92 | TWHQ | ≤ 0.25
93 | ALIF | ≤ 0.25
94 | LNDI | ≤ 0.25
95 | PEVF | ≤ 0.25
96 | RFAC | ≤ 0.25
97 | HNWR | ≤ 0.25
98 | MARL | ≤ 0.25
99 | RPHE | ≤ 0.25
100 | HKET | ≤ 0.25

Row | Variant | enrichment ratio
101 | DTLA | ≤ 0.25
102 | SFFF | ≤ 0.25
103 | KCAE | ≤ 0.25
104 | QTQF | ≤ 0.25
105 | TVMR | 2.36
106 | AFFA | ≤ 0.25
107 | VPIN | ≤ 0.25
108 | SSSQ | 9
109 | LGCY | ≤ 0.25
110 | RNRE | ≤ 0.25
111 | TKVI | 30.1
112 | DVLV | ≤ 0.25
113 | MTRN | ≤ 0.25
114 | APCF | ≤ 0.25
115 | MKAT | ≤ 0.25
116 | SGNW | ≤ 0.25
117 | GDRN | ≤ 0.25
118 | SIDE | ≤ 0.25
119 | SNYS | ≤ 0.25
120 | RQQR | ≤ 0.25
121 | PCNI | ≤ 0.25
122 | KKFT | ≤ 0.25
123 | DWDT | ≤ 0.25
124 | MGPK | ≤ 0.25
125 | TNGE | ≤ 0.25

Row | Variant | enrichment ratio
126 | SRMW | ≤ 0.25
127 | AFDA | ≤ 0.25
128 | AGSD | ≤ 0.25
129 | DFLF | ≤ 0.25
130 | DITI | ≤ 0.25
131 | VQFW | ≤ 0.25
132 | EILL | 1.1
133 | QFCF | ≤ 0.25
134 | MGKP | ≤ 0.25
135 | AAPM | 4.08
136 | NKEG | ≤ 0.25
137 | PQPM | ≤ 0.25
138 | KGLA | ≤ 0.25
139 | KCYP | ≤ 0.25
140 | DQQS | ≤ 0.25
141 | ILCP | ≤ 0.25
142 | LLDA | ≤ 0.25
143 | VSQY | ≤ 0.25
144 | NPYV | ≤ 0.25
145 | EFYD | ≤ 0.25
146 | SCDI | ≤ 0.25
147 | ENYT | ≤ 0.25
148 | KTIS | ≤ 0.25
149 | DVYC | ≤ 0.25
150 | RKAF | ≤ 0.25

Row | Variant | enrichment ratio
151 | HCRC | ≤ 0.25
152 | WYMA | ≤ 0.25
153 | AHYF | ≤ 0.25
154 | NWHS | ≤ 0.25
155 | WLYA | ≤ 0.25
156 | HKPT | ≤ 0.25
157 | NGGI | ≤ 0.25
158 | YGSQ | ≤ 0.25
159 | AVVF | 0.94
160 | KLPS | ≤ 0.25
161 | TFNP | ≤ 0.25
162 | IITG | ≤ 0.25
163 | DCQF | ≤ 0.25
164 | YWCV | ≤ 0.25
165 | PMDT | ≤ 0.25
166 | FHRE | ≤ 0.25
167 | LNSI | ≤ 0.25
168 | FGHM | ≤ 0.25
169 | LNEW | ≤ 0.25
170 | SYQY | ≤ 0.25
171 | YNQI | 0.676
172 | FQGW | ≤ 0.25
173 | LFFG | 0.356
174 | VVFT | ≤ 0.25
175 | PYGE | ≤ 0.25

Row | Variant | enrichment ratio
176 | PEQI | ≤ 0.25
177 | NWAL | ≤ 0.25
178 | IAGN | ≤ 0.25
179 | SANW | ≤ 0.25
180 | NYYC | ≤ 0.25
181 | LTAQ | ≤ 0.25
182 | KCQE | ≤ 0.25
183 | VIWE | ≤ 0.25
184 | MQCM | 8.31
185 | MTWM | ≤ 0.25
186 | VNCV | 4.67
187 | TDKQ | ≤ 0.25
188 | RYIL | ≤ 0.25
189 | NTRF | ≤ 0.25
190 | GNTA | ≤ 0.25
191 | MNMY | ≤ 0.25
192 | VGKM | ≤ 0.25
193 | RYMW | ≤ 0.25
194 | WDDI | ≤ 0.25
195 | EHNL | ≤ 0.25
